Laboratory results: publication PMC12040169 (PLOS Biology, 2025)
Some of the results follow.

Test system: T1, C. trachomatis L2/434/Bu expressing GFP (CTL2-GFP)
T1 construct: L2/434/Bu GFP intracellular growth in HeLa cells
Design: species or system HeLa; C. trachomatis total inclusion area by high-content imaging, normalised to DMSO
Details: total inclusion area; 28.5 h, 10 µM; inhibitor
How it was run: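 Following bulk GFP and resorufin fluorescence reads, infected cells were fixed, Hoechst-stained and imaged on a high-content platform. Inclusion total area and number per well served as growth proxies; nuclei counts indicated host viability. MICs were derived as for the fluorescence assay.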

Going from `O=C(CN1C2CCC1CC(O)(c1ccco1)C2)NCc1ccccc1` (stereo not shown) [CBK284105] to `O=C(c1csnn1)N1CCN(CCc2ccccc2)CC1` [CBK200228], the “% of control remaining” value rises from 73.2017 to 90.8077.

First: CC(CCc1ccccc1)N(C)CCN(C)C (stereo not shown) [CBK261933]
Second: CN(C)CCNCc1cccc(OCc2ccccc2)c1 [CBK278216C]
The “% of control remaining” value of the first is lower: 58.1643 for the first, 73.1426 for the second.

Compared with `Cc1cccc(C)c1N(CC(=O)O)S(C)(=O)=O` [CBK262329], `Cc1ccccc1SCC(C)C(=O)O` (stereo not shown) [CBK012292] is lower in “% of control remaining” value: 118.924 for the first, 59.2178 for the second.

Going from `CNC(=O)C1(Cc2cccc(-c3cccs3)c2)CCN(C(=O)COc2ccccc2)CC1` [CBK285732] to `COc1ccccc1-c1ccc(NC(=O)C2(c3cccc(F)c3)CCOCC2)cc1` [CBK285747], the “% of control remaining” value rises from 79.7858 to 94.6821.

Compared with `CC(CNCC1CCCO1)COc1cccc(Cl)c1` (stereo not shown) [CBK058789], `COc1cccc(OC)c1OCCNC1CCc2cc(Cl)ccc2C1` (stereo not shown) [CBK013079C] is higher in “% of control remaining” value: 40.073 for the first, 87.5574 for the second.

First: O=C(c1ccno1)N1Cc2ccccc2C1 [CBK200327]
Second: Cn1c(=O)[nH]c(=O)c2c(-c3ccccc3)ccnc21 [CBK288136]
The “% of control remaining” value of the first is higher: 66.9863 for the first, 51.9055 for the second.

Compared with `O=C(Nc1nccs1)C1CCCN(C(=O)c2ccco2)C1` (stereo not shown) [CBK296725], `O=C(CCCn1ccnc1)N1CCCC(c2cc3cccnc3[nH]2)C1` (stereo not shown) [CBK284959] is lower in “% of control remaining” value: 123.223 for the first, 92.1928 for the second.

Compared with `CCCS(=O)(=O)Nc1cccc2[nH]ccc12` [CBK159488], `O=S(=O)(Nc1ccc2[nH]ccc2c1)c1cccnc1` [CBK156811] is higher in “% of control remaining” value: 99.5358 for the first, 113.61 for the second.

First: COCCNc1nccnc1-c1ccccc1 [CBK088555]
Second: COc1cccc(-c2cc(C(=O)Nc3nnn[nH]3)c3ccccc3n2)c1 [CBK262640]
The “% of control remaining” value of the first is lower: 83.7135 for the first, 106.037 for the second.

First: O=S(=O)(Nc1ccc(-c2nnn[nH]2)cc1)c1c(F)cccc1F [CBK154734]
Second: Cc1ccc(S(=O)(=O)Nc2ccnc(-c3ccc(CO)cc3)n2)cc1 [CBK067477]
The “% of control remaining” value of the first is higher: 103.715 for the first, 102.725 for the second.

First: CCNC(=O)CN(C)S(=O)(=O)c1cc(Cl)ccc1Cl [CBK091853]
Second: CCC(=O)NCCc1c[nH]c2ccc([N+](=O)[O-])cc12 [CBK088059]
The “% of control remaining” value of the first is lower: 91.3122 for the first, 93.1867 for the second.

Going from `O=c1c2[nH]cc(-c3ccccc3)c2ncn1CCc1ccccc1` [CBK288025] to `C/C(=N\Nc1nc(-c2ccccc2)cs1)c1ccccc1` [CBK262104], the “% of control remaining” value rises from 55.0564 to 85.9634.

Compared with `O=C(COc1cccnc1)N1CCN(c2ncccn2)CC1` [CBK144521], `Cc1cc(C)n(CC(C)NC(=O)N2CCC(Oc3cccnc3)C2)n1` (stereo not shown) [CBK305342] is lower in “% of control remaining” value: 45.5208 for the first, 16.348 for the second.

First: O=C(O)C(c1c[nH]c2cc(F)ccc12)N1CCN(CC(=O)N2CCOCC2)CC1 (stereo not shown) [CBK286825]
Second: O=C(CNS(=O)(=O)c1cc(F)c(Br)cc1F)N1CCOCC1 [CBK042216]
The “% of control remaining” value of the first is higher: 99.5266 for the first, 85.8382 for the second.

Going from `CCOC(=O)c1cnc2ccc(F)cc2c1N1CCN(C)CC1` [CBK304376] to `CN1CCN(c2nc(-c3ccoc3)cn3ccnc23)CC1` [CBK066645], the “% of control remaining” value rises from 4.76 to 91.3388.

Compared with `CCNc1cc2ccccc2c(-c2cccc(C(F)(F)F)c2)n1` [CBK085772], `CN(C)c1ccc(Nc2cc(-c3cccc4ccccc34)ncn2)cc1` [CBK037835] is lower in “% of control remaining” value: 71.3303 for the first, 30.1476 for the second.

First: COc1ccc(CCCC(=O)Nc2c(C)nn(C)c2N2CCNCC2)cc1OC [CBK050252T]
Second: COc1ccc(C2CNC(=O)N2C(=O)OC(C)(C)C)cc1OC1CCCC1 (stereo not shown) [CBK007281]
The “% of control remaining” value of the first is lower: 86.2255 for the first, 112.563 for the second.

Compared with `COc1cccc(C2(NC(=O)CCn3cccn3)CCCC2)c1` [CBK283660], `O=S(=O)(NCC1(c2ccccc2)CCCC1)c1cccnc1` [CBK282762] is lower in “% of control remaining” value: 93.8209 for the first, 89.4294 for the second.

Compared with `Cn1c(N2CC[C@H](O)C2)nc2cc(C(=O)NCCn3cccc3)ccc21` [CBK307480], `CC(=O)Oc1ccc(-c2cccc(C(=O)NCCO)c2)cc1` [CBK263829] is higher in “% of control remaining” value: 55.7449 for the first, 83.7087 for the second.

First: COc1ccc(Br)c(C(=O)N(C)Cc2cnn(C)c2)c1 [CBK305142]
Second: CC(C)c1nccn1CC(=O)N(C)C(C)c1ccc(F)c(F)c1 (stereo not shown) [CBK306443]
The “% of control remaining” value of the first is lower: 39.8775 for the first, 41.5537 for the second.

Going from `CCCN1CCC(=NNC(=O)c2c[nH]c3ccccc23)CC1` [CBK262597] to `COc1ccc2[nH]c3c(c2c1)CCNC31CCN(Cc2ccccc2)C1` (stereo not shown) [CBK073952C], the “% of control remaining” value falls from 96.986 to 47.8748.

Compared with `Cc1cc(OCC(O)CN(Cc2ccccc2)C(C)(C)C)ccc1[N+](=O)[O-]` (stereo not shown) [CBK086757], `Cc1cc(C)n(CC(O)CN(c2ccccc2)S(=O)(=O)c2ccccc2)n1` (stereo not shown) [CBK264469] is higher in “% of control remaining” value: 105.774 for the first, 117.744 for the second.

Compared with `c1ccc2oc(CN3Cc4nc[nH]c4C[C@H]3c3nc(-c4cnccn4)no3)cc2c1` [CBK288954], `COc1ccc(C(C)C)cc1-c1cncc(NCCc2ccccn2)n1` [CBK065325] is higher in “% of control remaining” value: 103.445 for the first, 126.69 for the second.

Going from `COC(=O)c1c(NC(=O)C(=O)NCc2cccnc2)sc2c1CCCC2` [CBK269170] to `N#Cc1c(NC(=O)Cn2cnc3sc(-c4ccccc4)cc3c2=O)sc2c1CCC2` [CBK268053], the “% of control remaining” value falls from 103.386 to 98.1565.

Compared with `O=C1COCC(=O)N1c1ccc(I)cc1` [CBK086499], `COc1ccc(CN2C(=S)N(c3ccc(OC)cc3)[C@H]3[C@@H]2[C@H]2OC(=O)[C@@H]3C[C@H]2O)cc1` [CBK288934] is higher in “% of control remaining” value: 52.4287 for the first, 128.437 for the second.

Going from `O=C(CSCCO)Nc1ccc(Oc2ccccc2)cc1` [CBK269167] to `Cc1ccc(Cn2nc(NC(=O)c3cccn3C)c3ccccc32)cc1` [CBK048214], the “% of control remaining” value rises from 69.9285 to 100.521.

First: [N-]=[N+]=Nc1nc2c(N)ncnc2n1C1CC(O)C(CO)O1 (stereo not shown) [CBK201178]
Second: COC1C(O)C(CO)OC1n1cnc2c(=O)[nH]cnc21 (stereo not shown) [CBK201328]
The “% of control remaining” value of the first is higher: 132.121 for the first, 110.519 for the second.

Compared with `Cc1ccc2oc(-c3ccc(C)c(NC(=O)c4cc([N+](=O)[O-])ccc4Cl)c3)nc2c1` [CBK263055], `O=C(/C=C/c1ccco1)NC(=S)Nc1ccc(O)c(-c2nc3ccccc3s2)c1` [CBK264344] is lower in “% of control remaining” value: 89.9214 for the first, 83.8463 for the second.

Compared with `Cc1cc(C(F)F)n2nc(C(=O)NCc3ccccc3F)nc2n1` [CBK266228], `Cc1nc(SCc2ccccc2)nc(O)c1CC(=O)O` [CBK264203] is higher in “% of control remaining” value: 116.814 for the first, 134.726 for the second.

First: C=CCNC(=O)N[C@H]1CO[C@H]2[C@@H]1OC[C@H]2OC(=O)Nc1ccccc1 [CBK289466]
Second: CC1=C[C@@H](CC#N)[C@H](C(C)C)C[C@H]1CC(=O)Nc1ccccn1 [CBK289215]
The “% of control remaining” value of the first is higher: 120.714 for the first, 79.5533 for the second.

Compared with `O=C(N/N=C/c1ccncc1)C1CC1C(=O)N/N=C/c1ccncc1` (stereo not shown) [CBK261115], `Cc1nc(-c2ccc(NC(=O)C3CC=CCC3C(=O)O)cc2)cs1` (stereo not shown) [CBK299815] is higher in “% of control remaining” value: 70.0739 for the first, 121.272 for the second.

First: CSCCN1CCC(Oc2nccnc2OCC2COc3ccccc3O2)CC1 (stereo not shown) [CBK082996T]
Second: Cn1cc(CCNC(=O)NC2CCN(Cc3ccccn3)CC2)cn1 [CBK305297]
The “% of control remaining” value of the first is higher: 90.8183 for the first, 44.918 for the second.

Compared with `CN(C)c1cccc(Nc2ncc(-c3ccc(N4CCOCC4)cc3)n3ccnc23)c1` [CBK091222], `O=C(NCC(O)c1ccc(O)cc1)c1cnc(-c2ccc(Cl)cc2)c(-c2cccnc2)c1` (stereo not shown) [CBK036656] is higher in “% of control remaining” value: 70.3759 for the first, 135.405 for the second.

First: COc1ccc(-c2nnc(NC(=O)C3CCCCC3)o2)cc1 [CBK287592]
Second: CCCCOc1ccc(-c2cn(CC(N)=O)cn2)cc1 [CBK009035]
The “% of control remaining” value of the first is lower: 87.6181 for the first, 88.4894 for the second.

Going from `CCn1cc(CN(C)Cc2csc(C)n2)c2cc(C(=O)O)ncc21` [CBK306950] to `CCc1csc(C(=Cc2cccs2)C(N)=O)n1` [CBK001007], the “% of control remaining” value rises from 64.1828 to 101.928.

Going from `CC1CCCCN1C(=O)CCn1c(C(F)F)cc2cccnc21` (stereo not shown) [CBK285024] to `CCNC(=O)N1CC(C)N(CCCC(c2ccc(F)cc2)c2ccc(F)cc2)CC1C` (stereo not shown) [CBK024912C], the “% of control remaining” value falls from 101.706 to 41.2418.

Going from `CC1CCN(c2nnnc3c2sc2nc(N4CCOCC4)c4c(c23)CC(C)(C)SC4)CC1` [CBK268062] to `O=C(Cc1nnn[nH]1)N1CCCC2(CCN(C(=O)c3ccoc3)C2)C1` (stereo not shown) [CBK137077], the “% of control remaining” value rises from 102.599 to 119.388.

Compared with `COc1cc(F)ccc1-c1nc2ncccc2cc1NS(C)(=O)=O` [CBK085692], `COc1cc(C2Nc3ccccc3-c3nc(SC)nnc3O2)ccc1OCC(=O)O` (stereo not shown) [CBK262687] is higher in “% of control remaining” value: 85.6229 for the first, 111.557 for the second.

Compared with `CCCC(C)N(C)C(=O)CCc1c(C)nc(-c2cccnc2)[nH]c1=O` (stereo not shown) [CBK304965], `CC(=O)c1ccc(-c2cnc3[nH]c(=O)n([C@@H](C)c4ccccc4)c3n2)s1` [CBK064360] is higher in “% of control remaining” value: 69.4737 for the first, 132.932 for the second.

Going from `O=C1c2cccc3cccc(c23)C(=O)N1CCCSc1nnc(-c2ccncc2)n1-c1ccccc1` [CBK268684] to `O=C(CN1C(=O)c2ccccc2C1=O)Nc1nc(-c2ccccc2)cs1` [CBK287343], the “% of control remaining” value rises from 88.1055 to 100.311.

First: CC(CCCC(C)(C)O)Nc1cc(N2CCN(C)CC2)n2nccc2n1 (stereo not shown) [CBK037103]
Second: Cc1noc(N)c1C1OC(=O)c2ccccc21 (stereo not shown) [CBK022932]
The “% of control remaining” value of the first is higher: 71.3139 for the first, 66.5034 for the second.
